Results reported in PubChem BioAssay AID1631 (National Center for Advancing Translational Sciences (NCATS), 2009).
Out of some 260,000 compounds screened, about 890 (0.34%) were called active. The inconclusive results got no clear call from the source; some entries with a clear call stand among them for comparison. Calls follow the shape of the dose curve; as a rule, active = well fitted activation curve with a large enough effect; inconclusive = small, poorly fitted or top-dose-only effect; inactive = no such curve, though single readings can be large or run the other way. No potency is given beside an inconclusive call; the fits are too rough.

The compounds below were run against Pyruvate kinase PKM (Homo sapiens) (UniProt P14618) (assay: qHTS Assay for Activators of Human Muscle isoform 2 Pyruvate Kinase). Conditions: purified PKM2, Kinase-Glo ATP luminescence; Potency: activation; activation: at 57.5 µM (top of the series), 0% is enzyme alone, no compound.
Procedure, shortened: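 Purified hPK-M2 (>95%) run at intermediate activity with 0.1 mM ADP and 0.5 mM PEP in 50 mM imidazole pH 7.2, KCl, MgCl2; 1 h room temperature. ATP formed read by Kinase-Glo luminescence; normalized to uninhibited and no-enzyme controls.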
% is scaled to controls: 0 for no effect and ±100 for the full control effect; potency is read from the fitted curve at half-maximal effect; tags tell the direction and shape of the fitted curve.
Also: nearly all actives have a fitted effect of over 55% in size.

Chain of UniProt P14618 (P14618 whole entry, looked up, canonical isoform): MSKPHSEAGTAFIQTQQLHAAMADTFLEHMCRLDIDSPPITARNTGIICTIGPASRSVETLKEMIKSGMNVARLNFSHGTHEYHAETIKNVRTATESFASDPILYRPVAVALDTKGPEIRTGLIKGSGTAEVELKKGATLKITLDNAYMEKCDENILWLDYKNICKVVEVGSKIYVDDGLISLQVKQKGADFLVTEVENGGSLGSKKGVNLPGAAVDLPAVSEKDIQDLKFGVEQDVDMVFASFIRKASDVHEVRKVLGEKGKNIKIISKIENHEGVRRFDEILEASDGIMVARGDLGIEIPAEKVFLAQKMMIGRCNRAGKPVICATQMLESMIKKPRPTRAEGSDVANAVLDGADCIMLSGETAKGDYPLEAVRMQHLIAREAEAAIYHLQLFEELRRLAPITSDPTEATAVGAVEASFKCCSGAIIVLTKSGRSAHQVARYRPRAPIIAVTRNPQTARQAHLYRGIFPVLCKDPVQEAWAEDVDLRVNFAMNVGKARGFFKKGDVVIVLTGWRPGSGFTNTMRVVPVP

SMILES	Potency	activation
COCCNC(=O)C(c1ccc(Cl)cc1)N(C(=O)Cn1nnc2ccccc21)c1cccnc1 (stereo unspecified)	inconclusive [rising, single point]	
CC(=O)Nc1cc(S(=O)(=O)Nc2cccc(C)c2)c(C)cc1C		inactive: 1.97%
COC(=O)[C@@]1(Cc2ccc(F)cc2)[C@H]2c3cc(C(=O)N(C)C)n(CCc4ccc(O)c(O)c4)c3C[C@H]2CN1C(=O)c1ccccc1	inconclusive [rising, full curve]	
COC(=O)c1ccc(CN(c2ccc(C)cc2)S(=O)(=O)c2ccc3c(c2)OCCO3)o1	inconclusive [rising, single point]	
COc1ccc(NC(=S)Nc2cccc(C)n2)cc1		inactive: 1.29%
O=C(Oc1c(CN2CCOCC2)cc(Cl)c2cccnc12)c1ccccc1Cl		inactive: -3.24%
Brc1cccc(-c2nnc(SCc3nc4ccccc4[nH]3)o2)c1	inconclusive [rising, full curve, poor fit]	
OCCNc1ncnc2c1nnn2Cc1ccccc1	inconclusive [rising, single point]	
COc1cc2c(cc1OC)CN(S(=O)(=O)c1cccs1)CC2	inconclusive [rising, partial curve]	
COc1ccc(/C=N/NC(=O)Cn2c(Cc3ccc(OC)c(OC)c3)nc3ccccc32)cc1OC		inactive: 0.434%
Cc1c(F)cccc1NS(=O)(=O)c1ccc2c(c1)NC(=O)CO2	inconclusive [rising, partial curve]	
CC(=O)[C@@H]1[C@@H](C(=O)c2ccc(C)cc2)[C@]2(C(=O)Nc3ccccc32)[C@H]2C=Cc3cc(F)ccc3N12	inconclusive [rising, partial curve]	
CCOC(=O)c1cc(-c2ccco2)nc2c1c(C)nn2CCC#N	inconclusive [rising, partial curve]	
O=[N+]([O-])c1ccc(OCc2cnc(Cl)s2)c([N+](=O)[O-])c1	inconclusive [rising, single point]	
COc1cc(/C=C2\COC/C(=C\c3cc(OC)c(OC)c(OC)c3)C2=O)cc(OC)c1OC	inconclusive [rising, partial curve]	
CC1CCCc2sc3ncn(N)c(=N)c3c21 (stereo unspecified)		inactive: 8.45%
CN1CCC(N(C)CC(=O)Nc2cccc(Oc3ccccc3)c2)CC1	inconclusive [rising, full curve, poor fit]	
Cc1cc(NC(=O)CSc2nncc(=O)n2N)no1	inconclusive [rising, single point]	
O=S1(=O)C=C(Sc2nc3cc(Cl)ccc3o2)c2ccccc21		inactive: -2.65%
CCOC(=O)c1[nH]c2c(c1C)C(=O)CC(c1ccco1)C2 (stereo unspecified)	inconclusive [rising, single point]	
CC(=O)C1=C(c2cccc([N+](=O)[O-])c2)N(C(C)=O)n2c(C)nnc2S1	inconclusive [rising, full curve]	
CC1CCN(C(=O)CSc2nc3ccccc3c(=O)[nH]2)CC1	inconclusive [rising, single point]	
COc1cc(C=Nc2cccc(C)c2)c(O)c([N+](=O)[O-])c1		inactive: -4.3%
Cc1ccccc1NC(=O)Cn1nnc(C(=O)NCc2ccco2)c1N		inactive: -28.1%

SMILES	Potency	activation
CCOC(=O)c1c(C)[nH]c(C(=O)COC(=O)c2ccc(N3CCCC3=O)cc2)c1C	inconclusive [rising, single point]	
Cc1ccc(NN=Nc2nc3c([nH]2)c(=O)n(C)c(=O)n3C)cc1	inconclusive [rising, full curve, poor fit]	
CC(C)OCCCNC(=O)c1ccc(N(C)S(C)(=O)=O)cc1	inconclusive [rising, single point]	
CCOc1ccccc1/C=c1\sc2nc(-c3ccco3)nn2c1=O	inconclusive [rising, single point]	
Nn1cnc2scc(-c3ccco3)c2c1=O	inconclusive [rising, partial curve]	
CCN(C(=O)CSc1cc(C)c2cccc(C)c2n1)C1CCS(=O)(=O)C1 (stereo unspecified)	inconclusive [rising, single point]	
CC1(C)Cc2c(sc3c2c(=N)n(Cc2ccco2)c(=O)n3Cc2ccccc2)CO1	inconclusive [rising, partial curve]	
O=C(c1ccc(Cl)cc1)[C@@H]1[C@@H]2C(=O)N(c3cccc4ccccc34)C(=O)[C@@H]2C2c3ccccc3C=NN21 (stereo partly specified)		inactive: 12%
C=CCNC(=S)N/N=C/c1ccc(C(F)(F)F)cc1		inactive: -10.9%
Cc1ccc(S(=O)(=O)N2CCN(Cc3cc(C(C)C)ccc3O)CC2)cc1	inconclusive [rising, partial curve]	
COc1ccc(OC)c(-n2c(Cn3c(-c4ccccn4)nc4ccccc43)n[nH]c2=S)c1	inconclusive [rising, partial curve]	
N#C/C(=C\c1ccc(OCc2ccccc2)cc1)C(=O)Nc1ccc(C(=O)O)cc1	inconclusive [rising, single point]	
Cc1nc(Nc2c(Cl)cccc2Cl)sc1C(=O)Nc1ccccc1		inactive: 2.47%
Nc1nonc1NC(=O)CSc1nc2ccccc2s1	inconclusive [rising, partial curve]	
CCC(=O)/C=C1/Sc2ccc(OC)cc2N1CCO		inactive: -5.63%
Cc1cc(NC(=O)CSc2nnc(-c3ccc(O)cc3)o2)no1	inconclusive [rising, partial curve]	
COc1cc([N+](=O)[O-])ccc1NC(=S)Nn1cnnc1		inactive: -9.07%
O=c1c(O)cccc2cc(O)c(O)c(O)c12	inconclusive [rising, single point]	
CC(=O)Nc1c(C)ccc(CNC(=O)COc2cc(C)ccc2C)c1C		inactive: 10.6%
COc1ccc(NC(=O)NNC(=O)C(C)Oc2ccc(C(C)C)cc2)c(OC)c1 (stereo unspecified)		inactive: 3.11%
CC(C)OC(=O)CC(=O)CSc1nc2c(c(-c3cccs3)c1C#N)CCC2	inconclusive [rising, single point]	
O=C(CCSCCc1ccccn1)Nc1nccs1	inconclusive [rising, single point]	
N#Cc1ccc(CSc2nnc(Cc3cccs3)n2Cc2ccco2)cc1	inconclusive [rising, partial curve]	
NC(=O)COC(=O)c1cc(=O)[nH]c2ccc(S(=O)(=O)Nc3ccc(F)cc3)cc12	inconclusive [rising, partial curve]	

SMILES	Potency	activation
CCc1nnc(NC(=O)CSc2nc3c(cc2C#N)CCC3)s1	inconclusive [rising, full curve]	
CCOc1ccccc1-n1cnc(C#N)c1N	inconclusive [rising, single point]	
CCN(CC)CCn1c(NCc2cccc(OC)c2)nc2ccccc21		inactive: 9.83%
CCS(=O)(=O)N1Cc2ccccc2CC1C(=O)Nc1nnc(SCc2ccc(F)cc2)s1 (stereo unspecified)	inconclusive [rising, partial curve]	
CC(=O)N1N=C(c2ccc3ccccc3c2)OC12CCCC2	inconclusive [rising, single point]	
O=C(COc1ccc(Cl)cc1Cl)Nc1ccc(S(=O)(=O)NC2=NCCCCC2)cc1		inactive: 4.53%
Cc1ccc(N2C(=O)C3C4C=CC(CNC(=S)Nc5ccc(Cl)cc5)(O4)C3C2=O)cc1 (stereo unspecified)	inconclusive [rising, partial curve]	
COc1cccc(OC)c1-c1nn2c(-c3cc(-c4ccccc4)n[nH]3)nnc2s1		inactive: -1.01%
CCOC(=O)C1CCN(Cc2cc(C(C)(C)C)c(O)c(C(C)(C)C)c2)CC1	inconclusive [rising, single point]	
CC(C)(C)c1ccc(O)c(N=Cc2cc(Br)ccc2O)c1	inconclusive [rising, partial curve]	
O=C(Cn1nnc(-c2ccc3c(c2)OCO3)n1)NCc1ccccc1	inconclusive [rising, single point]	
Cc1cc(C)c(C#N)c(SCc2ccc3c(c2)OCO3)n1	inconclusive [rising, partial curve]	
CCn1c(CCNC(=O)c2cccs2)nnc1SCC(=O)Nc1nc(-c2ccccc2)cs1	inconclusive [rising, single point]	
Cn1c(=O)c2c(SCC(=O)Nc3nccs3)nc(C3CC3)nc2n(C)c1=O	inconclusive [rising, single point]	
Cc1ccc(S(=O)(=O)N2CCOCC2)cc1NC(=O)CSc1nc2ccccc2c(=O)n1Cc1ccccc1	inconclusive [rising, full curve]	
Cc1nnc(SCCCN2C(=O)c3ccccc3C2=O)o1	inconclusive [rising, single point]	
O=C(NC1=NCCS1)c1ccc(-c2ccc(Cl)cc2)o1		inactive: 2.24%
COc1ccc(C2Nc3ccccc3C(=O)N2c2ccc(C)cc2)cc1Cn1nnc2ccccc21 (stereo unspecified)	inconclusive [rising, single point]	
Cc1cc(C)c(C#N)c(SCc2nc3ccccc3c(=O)[nH]2)n1	inconclusive [rising, partial curve]	
C/C(=N\NC(=O)c1ccoc1C)c1cccc2ccccc12		inactive: 0.314%
Clc1ccc(-c2nc3cnccn3c2Nc2ccc3c(c2)OCO3)cc1		inactive: 17.6%
C(=N\n1cnnc1)/c1ccccn1	inconclusive [rising, partial curve]	
Nc1nc(SCC(=O)N2CCN(S(=O)(=O)c3ccc(Cl)cc3)CC2)n[nH]1	inconclusive [rising, partial curve]	
